Experimental data published in PubChem BioAssay AID2147 (National Center for Advancing Translational Sciences (NCATS), 2009).
“And” between values parts separate entries of the source, which are not always exact repeats. Identical values can stand only once. About 3,600 (1.6%) of roughly 230,000 compounds were called active. The inconclusive results got no clear call from the source; some entries with a clear call stand among them for comparison. Calls follow the shape of the dose curve; as a rule, active = well fitted inhibition curve with a large enough effect (not every such curve was filed as active); inconclusive = small, poorly fitted or top-dose-only effect, or another doubt; inactive = no such curve, though single readings can be large or run the other way. Where the call is inconclusive, the potency comes from a doubtful curve fit.

Biological target: Lysine-specific demethylase 4E (Homo sapiens) (UniProt B2RXH2)
Experiment: qHTS Assay for Inhibitors of Human Jumonji Domain Containing 2E (JMJD2E)
Conditions: JMJD2E catalytic domain, FDH-coupled NADH fluorescence (FDH is formaldehyde dehydrogenase); series mostly up to 57.1 µM; activity change, negative = inhibition: at the top concentration
Also: nearly all actives have a fitted effect of over 50% in size.
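For activity change, negative = inhibition in this document: 0% = wells with enzyme and -100% = buffer wells without enzyme.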
Potency is read from the fitted curve at half-maximal effect; tags tell the direction and shape of the fitted curve.

Chain of UniProt B2RXH2 (B2RXH2 whole entry, looked up, the tested form may be a part): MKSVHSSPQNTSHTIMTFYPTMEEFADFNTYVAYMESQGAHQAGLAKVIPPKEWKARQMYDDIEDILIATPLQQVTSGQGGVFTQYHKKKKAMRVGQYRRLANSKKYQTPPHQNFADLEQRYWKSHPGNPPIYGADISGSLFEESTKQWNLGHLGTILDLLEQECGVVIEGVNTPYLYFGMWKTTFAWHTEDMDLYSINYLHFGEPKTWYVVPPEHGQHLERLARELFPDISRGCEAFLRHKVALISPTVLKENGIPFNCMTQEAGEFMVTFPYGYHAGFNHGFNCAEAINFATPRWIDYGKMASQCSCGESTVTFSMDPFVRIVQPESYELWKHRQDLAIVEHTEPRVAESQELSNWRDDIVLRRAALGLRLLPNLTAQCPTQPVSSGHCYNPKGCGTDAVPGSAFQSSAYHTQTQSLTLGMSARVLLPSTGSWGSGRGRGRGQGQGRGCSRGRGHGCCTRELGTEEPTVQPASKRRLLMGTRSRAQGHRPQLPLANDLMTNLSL

| Structure (SMILES) | Potency | activity change, negative = inhibition |
| --- | --- | --- |
| COc1ccc(-c2cc(C(F)(F)F)nc(NC3CCCC3)n2)cc1OC | inconclusive: 31.6 µM [inhibitor, partial curve] | – |
| Cn1nc(-c2ccc(Cl)cc2)c2cc(C(=O)N3CCOCC3)sc21 | inconclusive: 39.8 µM [inhibitor, single point] | – |
| Cc1ncc(S(=O)(=O)c2ccccc2)c(-c2ccc(Cl)cc2Cl)n1 | – | inactive: -6.44% |
| COc1ccc(C(=O)c2c[nH]c(C(=O)NCC3CCCO3)c2)cc1 (configuration not stated) | – | inactive: 3.31% |
| CCOc1ccccc1NC(=O)C(OC(=O)c1ccc(N(C)C)cc1)c1ccccc1 (configuration not stated) | inconclusive: 31.6 µM [inhibitor, partial curve] | – |
| COc1cccc(OC)c1OCc1cc(C2C3CCCC=C3C(C#N)=C(N)C2(C#N)C#N)c(C)cc1C (configuration not stated) | inconclusive: 35.5 µM [inhibitor, single point] | – |
| O=C(Nc1ccc(S(=O)(=O)N2CCC(C(=O)NC3CCCCC3)CC2)cc1)c1ccco1 | inconclusive: 39.8 µM [inhibitor, single point] | – |
| COc1cc2c(cc1OC)C(C1C(=O)CCCC1=O)N(C(=O)CCl)CC2 (configuration not stated) | inconclusive: 25.1 µM [inhibitor, partial curve] | – |
| NC(=O)c1ccc(-n2nnnc2SCC(=O)c2ccc(O)c(O)c2)cc1 | active: 0.708 µM | – |
| CC(=O)NC1(c2ccccc2)CCN(c2nc(C)cc(C)n2)CC1 | inconclusive: 35.5 µM [inhibitor, single point] | – |
| Cn1c(=O)c2c(nc(CN3CCC(C(N)=O)CC3)n2Cc2ccccc2Cl)n(C)c1=O | – | inactive: -2.83% |
| Cc1ccc(NC(=O)c2ccc([N+](=O)[O-])o2)cc1C | inconclusive: 39.8 µM [inhibitor, single point] | – |
| Cc1cc(C(=O)COc2cccc(-n3cnnn3)c2)c(C)n1-c1ccccc1 | – | inactive: 5.09% |
| Cc1ccc(S(=O)(=O)c2nc(Nc3nccs3)sc2Cl)cc1 | – | inactive: -1.5% |
| O=C(NCC(c1ccc(F)cc1)N1CCOCC1)c1ccc(C(=O)c2ccccc2)cc1 (configuration not stated) | – | inactive: 4.17% |
| CCOC(=O)C(C)Sc1nc2c(c(=O)[nH]c(=O)n2C)n1C/C=C(/C)Cl (configuration not stated) | – | inactive: -7.09% |
| CCn1c(SCC(=O)NC2CCS(=O)(=O)C2)nnc1-c1ccccc1 (configuration not stated) | – | inactive: -2.13% |
| CCOC(=O)c1[nH]c2cc3c(cc2c1NC(=O)CN1CCC(C)CC1)OCO3 | inconclusive: 31.6 µM [inhibitor, partial curve] | – |
| CCCC[C@@H]1C[C@H]1C(NC(=O)c1ccco1)c1ccc(Cl)cc1 (some centres not stated) | – | inactive: -15.8% |
| COc1cccc(CN2CCNC(=O)C2CC(=O)NCCn2cccn2)c1OC (configuration not stated) | inconclusive: 39.8 µM [inhibitor, single point] | – |
| COC(=O)C(C)Sc1ccc2nnc(-c3ccc(F)cc3)n2n1 (configuration not stated) | inconclusive: 28.2 µM [inhibitor, single point] | – |
| O=C(N/N=C/c1cc(Cl)cc([N+](=O)[O-])c1O)C1CC1 | inconclusive: 31.6 µM [inhibitor, single point] | – |
| CC(C(=O)NCc1ccc2c(c1)OCO2)N1c2cccc3cccc(c23)S1(=O)=O (configuration not stated) | inconclusive: 28.2 µM [inhibitor, single point] | – |
| O=C(NN1C(=O)c2ccccc2NC1c1ccc([N+](=O)[O-])o1)c1ccc(Br)cc1 (configuration not stated) | inconclusive: 11.2 µM [inhibitor, partial curve] | – |

| Structure (SMILES) | Potency | activity change, negative = inhibition |
| --- | --- | --- |
| Cc1csc2c(=O)sc(NC(=O)c3ccc(F)cc3Cl)nc12 | inconclusive: 39.8 µM [inhibitor, single point] | – |
| CSC1=NSC2=NC(=O)/C(=C/c3coc4ccc(O)cc4c3=O)C(=N)N12 | inconclusive: 31.6 µM [inhibitor, partial curve] | – |
| CCc1nnc(NC(=O)CSc2nnc(CNC(=O)c3cc(OC)c(OC)c(OC)c3)o2)s1 | inconclusive: 39.8 µM [inhibitor, single point] | – |
| Cc1ccc(NC(=O)c2nsc(Cl)c2Cl)cc1 | inconclusive: 35.5 µM [inhibitor, partial curve] | – |
| COc1cc2c(cc1NC(=S)Nc1cccc(C)c1)oc1ccccc12 | inconclusive: 28.2 µM [inhibitor, partial curve] | – |
| COc1ccc(OC)c2c(=O)cc(C(=O)O)[nH]c12 | – | inactive: -11.2% |
| O=C(N1CCN(c2ccccc2)CC1)C12CC3CC(CC(C3)C1)C2 | – | inactive: -8.52% |
| COCCCNc1oc(COc2ccc(Cl)cc2Cl)nc1C#N | inconclusive: 15.8 µM [inhibitor, partial curve] | – |
| COc1cc2[nH]c(=O)n(Cc3ccc(C(=O)NCCCN4CCN(C)CC4)cc3)c(=O)c2cc1OC | inconclusive: 28.2 µM [inhibitor, single point] | – |
| COc1ccc2c(c1)c(CC(=O)O)c(C)n2Cc1ccc(F)cc1 | inconclusive: 39.8 µM [inhibitor, single point] | – |
| CCc1ccc2nc(/N=C(\N)NC(=O)c3ccccc3)nc(C)c2c1 | inconclusive: 35.5 µM [inhibitor, single point] | – |
| CC(=O)Cc1nsc(NC(=O)c2cccs2)n1 | inconclusive: 39.8 µM [inhibitor, single point] | – |
| COc1ccc(-c2c(C)sc(NC(=O)c3ccnn3C)c2C#N)cc1 | inconclusive: 20 µM [inhibitor, partial curve] | – |
| COC(=O)c1cc(NC(=O)c2ccc(C)cc2)c(=O)oc1C | – | inactive: 6.58% |
| O=C(C(c1ccccc1)c1ccccc1)N1CCN(Cc2ccccn2)CC1 | inconclusive: 28.2 µM [inhibitor, single point] | – |
| O=C(COc1cccc2ccccc12)NNC(=O)Nc1ccccc1 | inconclusive: 35.5 µM [inhibitor, single point] | – |
| COCCCNC(=O)c1c(N)n(-c2ccc(S(N)(=O)=O)cc2)c2nc3ccccc3nc12 | inconclusive: 11.2 µM [inhibitor, partial curve] | – |
| O=S(=O)(Nc1ccc(N2CCCCC2)cc1)c1ccccc1 | – | inactive: 11.6% |
| COc1ccc(-c2nc(C(F)(F)F)c(OC)o2)cc1OC | inconclusive: 22.4 µM [inhibitor, partial curve] | – |
| Cc1cc(SCC(=O)N/N=C/c2ccc(O)cc2O)c(C)cc1Br | inconclusive: 39.8 µM [inhibitor, single point] | – |
| CCOC(=O)c1sc(NC(=O)C2CCCO2)c(C(=O)OCC)c1C (configuration not stated) | inconclusive: 35.5 µM [inhibitor, single point] | – |
| O=C(c1ccco1)N1CCN(C(=O)c2cc(-c3ccccn3)nc3ccccc23)CC1 | – | inactive: -0.504% |
| O=C1CC(N2CCSCC2)C(=O)N1c1ccccc1 (configuration not stated) | – | inactive: 2.88% |
| CCCn1c(N)c(NCCN2CCOCC2)c(=O)[nH]c1=O | inconclusive: 35.5 µM [inhibitor, partial curve] | – |

| Structure (SMILES) | Potency | activity change, negative = inhibition |
| --- | --- | --- |
| COc1ccc(Oc2nc(-c3cccnc3)nc3ccccc23)cc1 | – | inactive: -25.1% |
| O=C(NNc1cccc(Cl)c1)c1cccnc1Oc1ccccc1 | – | inactive: -20.2% |
| CCOC(=O)CCCNc1ccc([N+](=O)[O-])cc1[N+](=O)[O-] | inconclusive: 35.5 µM [inhibitor, single point] | – |
| CCn1cc(C(=O)NCc2ccc(C)o2)c2cc(OC)c(OC)cc2c1=O | inconclusive: 39.8 µM [inhibitor, single point] | – |
| O=C(Oc1c(-c2ccccc2)c(=O)n2c3c(cccc13)CC2)c1ccc(F)cc1 | inconclusive: 28.2 µM [inhibitor, single point] | – |
| O=C(NN=C1C2CC3CC(C2)CC1C3)c1ccncc1 | – | inactive: 69.2% |
| Cc1nnc(SCC(=O)NC23CC4CC(CC(C4)C2)C3)s1 | – | inactive: -2% |
| Cc1ccccc1-c1nccc(-n2ccnc2)n1 | – | inactive: -26.3% |
| COc1ccc(CC(=O)Nc2ccc(-c3cn4cccc(C)c4n3)cc2)cc1OC | inconclusive: 28.2 µM [inhibitor, partial curve] | – |
| CCn1cc(C(=O)NCC2CCCO2)c(=O)c2cc(S(=O)(=O)N(C)C)ccc21 (configuration not stated) | – | inactive: -3.77% |
| Cc1ccc(-c2nn(-c3ccccc3)cc2/C=C(\C#N)C(=O)NCc2ccccc2)cc1 | – | inactive: 13.3% |
| COc1ccccc1Nc1nc(-c2sc(NC(=O)C(C)(C)C)nc2C)cs1 | – | inactive: -0.175% |
| CC(C)Cn1c2nc3ccccc3nc2c2c(=O)n(CCN3CCOCC3)cnc21 | inconclusive: 4.47 µM [inhibitor, full curve] | – |
| Cc1c(C(=O)Oc2cc(N)n(S(C)(=O)=O)n2)cccc1[N+](=O)[O-] | inconclusive: 39.8 µM [inhibitor, single point] | – |
| COc1cc2c(cc1OC)-c1cc(NC3CC3)nc(=O)n1CC2 | inconclusive: 35.5 µM [inhibitor, single point] | – |
| Cc1ccc2[nH]c3c(=O)n(CCCN4CCN(C)CC4)cnc3c2c1 | inconclusive: 7.94 µM [inhibitor, full curve] and inconclusive: 10 µM [inhibitor, partial curve] | – |
| NS(=O)(=O)c1ccc(CCNC(=O)c2ccc(Cn3c(=O)[nH]c4ccccc4c3=O)cc2)cc1 | inconclusive: 39.8 µM [inhibitor, single point] | – |
| O=C(c1ccc(Cl)cc1)N1CCC(O)(CSc2ccccc2)CC1 | – | inactive: 5.61% |
| c1cc(-c2nnc3n2CCCCC3)ccn1 | – | inactive: 2.95% |
| COc1ccc(CNC(=O)CCCc2ccccc2)cc1 | – | inactive: 1.35% |
| Cc1[nH]nc2c1C(c1cn[nH]c1-c1ccc(F)cc1)C(C#N)=C(N)O2 (configuration not stated) | – | inactive: -17.2% |
| CCN1CCN(c2ncnc3c2sc2nc(N4CCOCC4)c4c(c23)CCC4)CC1 | inconclusive: 20 µM [inhibitor, partial curve] | – |
| S=C(NCCCN1CCOCC1)Nc1ccc(-c2nc3ccccc3[nH]2)cc1 | inconclusive: 35.5 µM [inhibitor, partial curve] | – |
| Nc1c2c(nc3ccccc13)N(C1CCCCC1)CC2 | inconclusive: 28.2 µM [inhibitor, partial curve] | – |
